According to the supplement of paper PMC8728848:
This is one part of the list.

Legend:
Assay in all cases: glycan array binding signal (z-score within array); higher = stronger binding
Details in all cases: glycan notation: IUPAC condensed, linker removed
Fuc(a1-2)Gal = target: Fuc(a1-2)Gal
How it was run: (§1)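 The binding signal is a Z-score computed within each array. Data were drawn from 3228 arrays in the Consortium for Functional Glycomics database, restricted to those with a known protein sequence. Scores were averaged over arrays of the same protein sequence at different concentrations or buffers, and over linkers, and negative values can be taken as non-binding.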

Fuc(a1-2)Gal(b1-3)GalNAc = target: Fuc(a1-2)Gal(b1-3)GalNAc
How it was run: as §1

[1] = target: Fuc(a1-2)Gal(b1-3)GalNAc(a1-3)[Fuc(a1-2)]Gal(b1-4)Glc
How it was run: as §1

[2] = target: Fuc(a1-2)Gal(b1-3)GalNAc(a1-3)[Fuc(a1-2)]Gal(b1-4)GlcNAc
How it was run: as §1

[3] = target: Fuc(a1-2)Gal(b1-3)GalNAc(b1-3)Gal
How it was run: as §1

[4] = target: Fuc(a1-2)Gal(b1-3)GalNAc(b1-3)Gal(a1-4)Gal(b1-4)Glc
How it was run: as §1

[5] = target: Fuc(a1-2)Gal(b1-3)GalNAc(b1-4)[Neu5Ac(a2-3)]Gal(b1-4)Glc
How it was run: as §1

Fuc(a1-2)Gal(b1-3)GlcNAc = target: Fuc(a1-2)Gal(b1-3)GlcNAc
How it was run: as §1

[6] = target: Fuc(a1-2)Gal(b1-3)GlcNAc(b1-2)Man(a1-3)[Fuc(a1-2)Gal(b1-3)GlcNAc(b1-2)Man(a1-6)]Man(b1-4)GlcNAc(b1-4)GlcNAc
How it was run: as §1

[7] = target: Fuc(a1-2)Gal(b1-3)GlcNAc(b1-2)Man(a1-3)[Fuc(a1-2)Gal(b1-3)GlcNAc(b1-2)Man(a1-6)]Man(b1-4)GlcNAc(b1-4)[Fuc(a1-6)]GlcNAc
How it was run: as §1

[8] = target: Fuc(a1-2)Gal(b1-3)GlcNAc(b1-3)Gal(b1-4)Glc
How it was run: as §1

[9] = target: Fuc(a1-2)Gal(b1-3)GlcNAc(b1-3)GalNAc
How it was run: as §1

[10] = target: Fuc(a1-2)Gal(b1-3)GlcNAc(b1-3)[Fuc(a1-2)Gal(b1-3)GlcNAc(b1-6)]GalNAc
How it was run: as §1

[11] = target: Fuc(a1-2)Gal(b1-3)GlcNAc(b1-3)[Gal(b1-4)GlcNAc(b1-6)]Gal(b1-4)Glc
How it was run: as §1

[12] = target: Fuc(a1-2)Gal(b1-3)GlcNAc(b1-3)[Neu5Ac(a2-6)Gal(b1-4)GlcNAc(b1-6)]Gal(b1-4)Glc
How it was run: as §1

[13] = target: Fuc(a1-2)Gal(b1-3)GlcNAc6S
How it was run: as §1

[14] = target: Fuc(a1-2)Gal(b1-3)[Fuc(a1-4)]GlcNAc
How it was run: as §1

[15] = target: Fuc(a1-2)Gal(b1-3)[Fuc(a1-4)]GlcNAc(b1-2)Man(a1-3)[Fuc(a1-2)Gal(b1-3)[Fuc(a1-4)]GlcNAc(b1-2)Man(a1-3)]Man(b1-4)GlcNAc(b1-4)GlcNAc
How it was run: as §1

[16] = target: Fuc(a1-2)Gal(b1-3)[Fuc(a1-4)]GlcNAc(b1-2)Man(a1-3)[Fuc(a1-2)Gal(b1-3)[Fuc(a1-4)]GlcNAc(b1-2)Man(a1-6)]Man(b1-4)GlcNAc(b1-4)[Fuc(a1-6)]GlcNAc(b1-4)[Fuc(a1-6)]GlcNAc
How it was run: as §1

[17] = target: Fuc(a1-2)Gal(b1-3)[Fuc(a1-4)]GlcNAc(b1-3)[Fuc(a1-3)[Gal(b1-4)]GlcNAc(b1-6)]Gal(b1-4)Glc
How it was run: as §1

[18] = target: Fuc(a1-2)Gal(b1-3)[Fuc(a1-4)]GlcNAc(b1-3)[Gal(b1-4)GlcNAc(b1-6)]Gal(b1-4)Glc
How it was run: as §1

Fuc(a1-2)Gal(b1-4)Glc = target: Fuc(a1-2)Gal(b1-4)Glc
How it was run: as §1

Fuc(a1-2)Gal(b1-4)Glc6S = target: Fuc(a1-2)Gal(b1-4)Glc6S
How it was run: as §1

Fuc(a1-2)Gal(b1-4)GlcNAc = target: Fuc(a1-2)Gal(b1-4)GlcNAc
How it was run: as §1

[19] = target: Fuc(a1-2)Gal(b1-4)GlcNAc(b1-2)Man
How it was run: as §1

[20] = target: Fuc(a1-2)Gal(b1-4)GlcNAc(b1-2)Man(a1-3)[Fuc(a1-2)Gal(b1-4)GlcNAc(b1-2)Man(a1-6)]Man(b1-4)GlcNAc(b1-4)GlcNAc
How it was run: as §1

[21] = target: Fuc(a1-2)Gal(b1-4)GlcNAc(b1-2)Man(a1-3)[Fuc(a1-2)Gal(b1-4)GlcNAc(b1-2)Man(a1-6)]Man(b1-4)GlcNAc(b1-4)[Fuc(a1-6)]GlcNAc
How it was run: as §1

[22] = target: Fuc(a1-2)Gal(b1-4)GlcNAc(b1-2)[Fuc(a1-2)Gal(b1-4)GlcNAc(b1-4)]Man(a1-3)[Fuc(a1-2)Gal(b1-4)GlcNAc(b1-2)Man(a1-6)]Man(b1-4)GlcNAc(b1-4)GlcNAc
How it was run: as §1

[23] = target: Fuc(a1-2)Gal(b1-4)GlcNAc(b1-3)Gal(b1-4)GlcNAc
How it was run: as §1

[24] = target: Fuc(a1-2)Gal(b1-4)GlcNAc(b1-3)Gal(b1-4)GlcNAc(b1-2)Man(a1-3)[Fuc(a1-2)Gal(b1-4)GlcNAc(b1-3)Gal(b1-4)GlcNAc(b1-2)Man(a1-6)]Man(b1-4)GlcNAc(b1-4)GlcNAc
How it was run: as §1

[25] = target: Fuc(a1-2)Gal(b1-4)GlcNAc(b1-3)Gal(b1-4)GlcNAc(b1-3)Gal(b1-4)GlcNAc
How it was run: as §1

[26] = target: Fuc(a1-2)Gal(b1-4)GlcNAc(b1-3)GalNAc
How it was run: as §1

[27] = target: Fuc(a1-2)Gal(b1-4)GlcNAc(b1-3)[Fuc(a1-2)Gal(b1-4)GlcNAc(b1-6)]GalNAc
How it was run: as §1

[28] = target: Fuc(a1-2)Gal(b1-4)GlcNAc(b1-3)[Fuc(a1-3)[Gal(b1-4)]GlcNAc(b1-6)]Gal(b1-4)Glc
How it was run: as §1

[29] = target: Fuc(a1-2)Gal(b1-4)GlcNAc(b1-6)GalNAc
How it was run: as §1

[30] = target: Fuc(a1-2)Gal(b1-4)GlcNAc6S
How it was run: as §1

[31] = target: Fuc(a1-2)Gal(b1-4)[Fuc(a1-3)]GlcNAc
How it was run: as §1

[32] = target: Fuc(a1-2)Gal(b1-4)[Fuc(a1-3)]GlcNAc(b1-2)Man(a1-3)[Fuc(a1-2)Gal(b1-4)[Fuc(a1-3)]GlcNAc(b1-2)Man(a1-6)]Man(b1-4)GlcNAc(b1-4)[Fuc(a1-6)]GlcNAc
How it was run: as §1

[33] = target: Fuc(a1-2)Gal(b1-4)[Fuc(a1-3)]GlcNAc(b1-2)[Fuc(a1-2)Gal(b1-4)[Fuc(a1-3)]GlcNAc(b1-4)]Man(a1-3)[Fuc(a1-2)Gal(b1-4)[Fuc(a1-3)]GlcNAc(b1-2)Man(a1-6)]Man(b1-4)GlcNAc(b1-4)GlcNAc
How it was run: as §1

[34] = target: Fuc(a1-2)Gal(b1-4)[Fuc(a1-3)]GlcNAc(b1-3)Gal(b1-4)[Fuc(a1-3)]GlcNAc
How it was run: as §1

[35] = target: Fuc(a1-2)Gal(b1-4)[Fuc(a1-3)]GlcNAc(b1-3)Gal(b1-4)[Fuc(a1-3)]GlcNAc(b1-3)Gal(b1-4)[Fuc(a1-3)]GlcNAc
How it was run: as §1

[36] = target: Fuc(a1-2)Gal(b1-4)[Fuc(a1-3)]GlcNAc(b1-3)GalNAc
How it was run: as §1

[37] = target: Fuc(a1-2)Gal(b1-4)[Fuc(a1-3)]GlcNAc(b1-3)[Neu5Ac(a2-6)Gal(b1-4)GlcNAc(b1-6)]Gal(b1-4)Glc
How it was run: as §1

[38] = target: Fuc(a1-2)Gal3S(b1-4)GlcNAc
How it was run: as §1

[39] = target: Fuc(a1-2)Gal6S(b1-3)GlcNAc
How it was run: as §1

B1: GS13686A-pdi-553-26-553 (Parabacteroides distasonis) (protein)
chain: NENPDKPTDDVNYNMNEPRLASTLRGGLIIEGNVEQRLKPLQIDFYSQMTVDGGGWGTKNYIQDDEWNNLVWEEYLKQIASINIVIRSLTEKDKDAYANTIAFARIWRVYVHTLAADKFGPMPFPAYEIVEANPPYKSLKDIYDEYFRELDAAINGFNDSAQPIFSDAGIDLIYKNDVSKWKRFANSLRLRLAVRLTEVDQEKCIAEANAAISSPAGLISDKADNAYMPPKADGSWGQDYNYTMFQITWSGPICMSKSVEKLVTNIGGVAWPQGVVNQTSGVAVSSVHPEKVDPRAPKIFQPGIENGDWKGLVYGPKAEEANTGIYQSKQCAELGFIIKDGYPYKSRPYDLFLSEEVHFLKAELYARGFIAGDAKSEYEAGVRASFATWGVTSEVDDYLTSTEKNEAGTSARYDDQQGAGNTALEKIITQKYIAGIPDLAQEGWNDKRRLNLPRLDVAVYRDQAVYNNNDKDILKSANFIKRMRYPTKESLINATEYEKGKSMLGGKGDIVSTPLWWDKNSNYCTSSK
Fuc(a1-2)Gal
  glycan array binding signal (z-score): -0.108
Fuc(a1-2)Gal(b1-3)GalNAc
  glycan array binding signal (z-score): -0.298
[1]
  glycan array binding signal (z-score): -0.182
[2]
  glycan array binding signal (z-score): -0.223
[3]
  glycan array binding signal (z-score): 0.382
[4]
  glycan array binding signal (z-score): -0.362
[5]
  glycan array binding signal (z-score): 0.028
Fuc(a1-2)Gal(b1-3)GlcNAc
  glycan array binding signal (z-score): -0.107
[6]
  glycan array binding signal (z-score): 0.144
[7]
  glycan array binding signal (z-score): 0.027
[8]
  glycan array binding signal (z-score): -0.191
[9]
  glycan array binding signal (z-score): -0.08
[10]
  glycan array binding signal (z-score): -0.15
[11]
  glycan array binding signal (z-score): -0.18
[12]
  glycan array binding signal (z-score): -0.05
[13]
  glycan array binding signal (z-score): 0.236
[14]
  glycan array binding signal (z-score): -0.275
[15]
  glycan array binding signal (z-score): 0.077
[16]
  glycan array binding signal (z-score): 0.042
[17]
  glycan array binding signal (z-score): -0.349
[18]
  glycan array binding signal (z-score): -0.191
Fuc(a1-2)Gal(b1-4)Glc
  glycan array binding signal (z-score): -0.076
Fuc(a1-2)Gal(b1-4)Glc6S
  glycan array binding signal (z-score): 0.03
Fuc(a1-2)Gal(b1-4)GlcNAc
  glycan array binding signal (z-score): -0.195
[19]
  glycan array binding signal (z-score): -0.195
[20]
  glycan array binding signal (z-score): -0.183
[21]
  glycan array binding signal (z-score): 0.402
[22]
  glycan array binding signal (z-score): -0.105
[23]
  glycan array binding signal (z-score): -0.015
[24]
  glycan array binding signal (z-score): 0.006
[25]
  glycan array binding signal (z-score): -0.364
[26]
  glycan array binding signal (z-score): -0.352
[27]
  glycan array binding signal (z-score): -0.111
[28]
  glycan array binding signal (z-score): -0.09
[29]
  glycan array binding signal (z-score): -0.08
[30]
  glycan array binding signal (z-score): -0.344
[31]
  glycan array binding signal (z-score): -0.231
[32]
  glycan array binding signal (z-score): -0.058
[33]
  glycan array binding signal (z-score): 0.061
[34]
  glycan array binding signal (z-score): -0.019
[35]
  glycan array binding signal (z-score): -0.045
[36]
  glycan array binding signal (z-score): 0.523
[37]
  glycan array binding signal (z-score): -0.056
[38]
  glycan array binding signal (z-score): -0.31
[39]
  glycan array binding signal (z-score): -0.018
